From patent US11178870B2 (priority 2017, dated 2021)

Assays:
[1] = tested on: Phytophthora infestans; assay type: in vivo; settings: Table 7, Test F
[2] = tested on: Colletotrichum orbiculare; settings: 250 ppm sprayed (2.5 ml/pot) before inoculation; assessed 6 to 10 days after inoculation
[3] = tested on: Magnaporthe grisea; assay type: in vivo; settings: Table 7, Test A

| SMILES | control value, Test F (late blight on tomato) [1] | control value, Test H (anthracnose on cucumber) [2] | control value, Test A (blast on rice) [3] |
| --- | --- | --- | --- |
| CCn1c(-c2c(F)cccc2Br)c(-n2cc(F)cn2)ccc1=O [Compound 360] | L (L shows the control value of 50% or less) | H (H shows the control value more than 50%) | – |
| CCn1c(-c2ccc(OC)cc2Cl)c(-n2cc(F)cn2)cc(Br)c1=O [Compound 363] | L (L shows the control value of 50% or less) | H (H shows the control value more than 50%) | H (H shows the control value more than 50%) |
